{
  "source": "PubChem BioAssay AID651820",
  "about": "(National Center for Advancing Translational Sciences (NCATS), 2012)",
  "note": "Several values for one entry are separate records, joined by “and”; a condition that tells them apart may be missing. Equal entries are not always repeated. The campaign covered roughly 340,000 compounds. About 12,000 (3.5%) were called active. Inconclusive means that the source gave no clear call. Such entries were picked first, then a sample of the others. Calls come from the whole dose curve; as a rule, active = well fitted inhibition curve with a large enough effect; inconclusive = small, poorly fitted or top-dose-only effect, or another doubt; inactive = no such curve, though single readings can be large or run the other way. Potencies of inconclusive entries are doubtful fits and often do not repeat. Potency is the fitted concentration of half-maximal effect; tags give direction and shape of the fitted curve.",
  "data": [
    {"assay": "qHTS Assay for Inhibitors of Hepatitis C Virus (HCV)", "conditions": "Huh7.5.1 HCVcc-Cre (HCVcc is cell-culture hepatitis C virus) infection, luciferase reporter, 44 h; series mostly up to 41.8 µM", "method_in_brief": "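Antiviral activity was scored by luciferase reporter output from cells infected with HCVcc-Cre (~0.5 moi) in presence of compound, 44 h infection period, cells seeded 1,000/well 4 h prior.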", "values": [
      {"smiles": "O=C(COc1ccc2c3c(c(=O)oc2c1)CCC3)N[C@@H](Cc1ccccc1)C(=O)O", "Potency": "inconclusive: 6.31 µM [inhibitor, full curve]"},
      {"smiles": "O=C(Nc1ccc(Oc2cccc(C(F)(F)F)c2)nc1)c1ccco1", "Potency": "active: 10 µM"},
      {"smiles": "Cc1oc(-c2ccc(Cl)cc2)nc1CN1CCC(C(=O)NCCCN2CCCC2=O)CC1", "Potency": "inconclusive: 22.4 µM [inhibitor, single point]"},
      {"smiles": "S=C(Nc1ccc(Br)cc1Cl)N1CCN(c2ccccn2)CC1", "Potency": "inactive"},
      {"smiles": "COC(=O)/C=C1/S/C(=N/NC(=O)c2ccc(Cl)cc2Cl)NC1=O", "Potency": "inactive"},
      {"smiles": "CC1CC(C)CN(CCCNC(=O)Cn2ncc3c([nH]c4ccccc43)c2=O)C1", "note": "(centres undefined)", "Potency": "inconclusive: 25.1 µM [inhibitor, single point]"},
      {"smiles": "CCCC(=O)N(Cc1cc(=O)[nH]c2ccccc12)c1cccc(C)c1", "Potency": "inactive"},
      {"smiles": "COc1ccc(Cn2c(=S)[nH]c3cc(C(=O)NCCCN4CCOCC4)ccc3c2=O)cc1", "Potency": "inconclusive: 8.91 µM [inhibitor, partial curve, poor fit]"},
      {"smiles": "CCN1C(=O)c2n[nH]c(C(=O)OC)c2C1=O", "Potency": "inconclusive: 2 µM [inhibitor, partial curve]"},
      {"smiles": "COc1cc(/C=N/N(C)C)ccc1OC(=O)c1cccs1", "Potency": "inactive"},
      {"smiles": "CCOc1ccc(NC(=O)CN2C(=O)NC3(CCCC3)C2=O)cc1S(=O)(=O)N1CCCCC1", "Potency": "inconclusive: 31.6 µM [inhibitor, single point]"},
      {"smiles": "Cc1ccc(C(=O)Nc2ccccc2C(=O)NCc2ccco2)cc1S(=O)(=O)N1CCCCC1", "Potency": "inconclusive: 8.91 µM [inhibitor, partial curve]"},
      {"smiles": "CCCCCOC(=O)Cc1c(O)c2ccccc2[nH]c1=O", "Potency": "inactive"},
      {"smiles": "O=P(Oc1ccc(-c2ccccc2)cc1)(N1CC1)N1CC1", "Potency": "inconclusive: 3.98 µM [inhibitor, partial curve]"},
      {"smiles": "CCOC(=O)c1c(-c2ccc(-c3ccccc3)cc2)csc1NC(=O)CNCCN(C)C", "Potency": "active: 5.62 µM"},
      {"smiles": "Cc1ccc2nc(/C(C#N)=C\\c3ccc(N4CCOCC4)o3)[nH]c2c1", "Potency": "inconclusive: 5.62 µM [inhibitor, single point]"},
      {"smiles": "COC(=O)[C@H]1Cc2c([nH]c3ccccc23)[C@H](c2ccccc2)N1", "Potency": "inactive"},
      {"smiles": "CC(C)[C@H](NC(=O)c1ccc([N+](=O)[O-])cc1Cl)C(=O)N1CCN(C/C=C/c2ccccc2)CC1", "Potency": "active: 14.1 µM"},
      {"smiles": "CCSc1nc2sc3c(c2c(=O)n1-c1ccccc1C)CCN(C)C3", "Potency": "inconclusive: 22.4 µM [inhibitor, single point]"},
      {"smiles": "Cn1cc(C(=O)N/N=C/c2ccc3c(c2)OCO3)c2ccccc21", "Potency": "inconclusive: 15.8 µM [inhibitor, partial curve]"},
      {"smiles": "CCOC(=O)c1ccc(NC(=O)CSc2nnc(C)n2-c2ccccc2)cc1", "Potency": "inconclusive: 8.91 µM [inhibitor, partial curve, poor fit]"},
      {"smiles": "CN(c1ccc(C(=O)Nc2ccc(S(=O)(=O)N3CCCC3)cc2)cc1)S(C)(=O)=O", "Potency": "active: 5.01 µM"},
      {"smiles": "CCOC(=O)c1c(C)[nH]c(N=Nc2ccccc2Cl)c1C", "Potency": "inconclusive: 10 µM [inhibitor, partial curve]"},
      {"smiles": "CCC(C)NS(=O)(=O)c1ccc(NC(=O)c2c(-c3ccccc3)noc2C)cc1", "note": "(centres undefined)", "Potency": "inconclusive: 12.6 µM [inhibitor, single point]"},
      {"smiles": "COc1ccc(C(=O)NC(=S)NC(C)(C)C)cc1Br", "Potency": "inconclusive: 22.4 µM [inhibitor, partial curve]"},
      {"smiles": "C=CCOc1c(Br)cc(/C=N\\n2nnnc2N)cc1OC", "Potency": "inconclusive: 12.6 µM [inhibitor, single point]"},
      {"smiles": "O=C(Cn1c(-c2ccccc2)noc1=O)Nc1ccc(N2CCCCCC2)cc1", "Potency": "inconclusive: 31.6 µM [inhibitor, single point]"},
      {"smiles": "CCOC(=O)c1c(NC(=O)c2ccc(N3C(=O)[C@@H]4[C@H](C3=O)[C@H]3C=C[C@@H]4C3)cc2)sc2c1CC(C)CC2", "note": "(some centres undefined)", "Potency": "inconclusive: 8.91 µM [inhibitor, partial curve]"},
      {"smiles": "CCCCCn1c(=O)c(C(=O)NCCc2ccccc2)c(O)c2ccccc21", "Potency": "inconclusive: 10 µM [inhibitor, single point]"},
      {"smiles": "O=C(NC(Cc1ccccc1)c1nc2ccccc2[nH]1)c1cccc([N+](=O)[O-])c1", "note": "(centres undefined)", "Potency": "inconclusive: 3.16 µM [inhibitor, full curve]"},
      {"smiles": "O=C(Nc1ccc(CN2CCCCC2)cc1)c1ccc(Br)o1", "Potency": "inconclusive: 14.1 µM [inhibitor, partial curve]"},
      {"smiles": "COc1ccc(NC(=O)N(Cc2cc3cc(OC)ccc3[nH]c2=O)CC2CCCO2)cc1", "note": "(centres undefined)", "Potency": "inconclusive: 35.5 µM [inhibitor, partial curve, poor fit]"},
      {"smiles": "CC(CCc1ccccc1)NC(=O)CN1CCN(Cc2ccc(Cl)cc2)C1=O", "note": "(centres undefined)", "Potency": "inconclusive: 31.6 µM [inhibitor, single point]"},
      {"smiles": "Cn1cc(C(=O)C(=O)N2CCCCC2)c2ccccc21", "Potency": "inactive"},
      {"smiles": "O=C(c1ccco1)N(CCCN1CCOCC1)c1nc(-c2ccc(Cl)cc2)cs1", "Potency": "active: 31.6 µM and active: 11.2 µM"},
      {"smiles": "O=C(Nc1ccc2c(c1)OC1(CCCC1)O2)C1CC1", "Potency": "inactive"},
      {"smiles": "CCc1ccc(OC)c(S(=O)(=O)Nc2ccccc2C)c1", "Potency": "inconclusive: 11.2 µM [inhibitor, partial curve]"},
      {"smiles": "O=C(C(NS(=O)(=O)c1cccs1)c1ccccc1)N1CCN(c2ccccc2)CC1", "note": "(centres undefined)", "Potency": "inactive"},
      {"smiles": "COC(=O)c1ccccc1NC(=O)c1ccc(NC(=O)C2CCCO2)cc1", "note": "(centres undefined)", "Potency": "inconclusive: 31.6 µM [inhibitor, single point]"},
      {"smiles": "O=C(CN1CCCC1)Nc1nc(-c2ccc3c(c2)CCN3C(=O)c2ccccc2F)cs1", "Potency": "active: 10 µM"},
      {"smiles": "COc1ccc2[nH]cc(/C=C/C(=O)c3ccccc3)c2c1", "Potency": "active: 10 µM"},
      {"smiles": "Cc1ccccc1-c1nc(CN2CCC(C(=O)N3CCN(c4ccccn4)CC3)CC2)c(C)o1", "Potency": "inconclusive: 31.6 µM [inhibitor, single point]"},
      {"smiles": "O=C(O)c1ccccc1-n1c2ccccc2c2ccccc21", "Potency": "inactive"},
      {"smiles": "O=P(COCCOCP(=O)(c1ccccc1)c1ccccc1)(c1ccccc1)c1ccccc1", "Potency": "inactive"},
      {"smiles": "COc1cccc(Oc2cnc(N)nc2-c2ccc(OC)cc2O)c1", "Potency": "inconclusive: 2.24 µM [inhibitor, partial curve]"},
      {"smiles": "C=C(C)C1CC=C(C)/C(=N/NC(=O)c2ccc(NC(=O)c3cccc(C)c3)cc2)C1", "note": "(centres undefined)", "Potency": "inconclusive: 31.6 µM [inhibitor, single point]"},
      {"smiles": "c1ccc(C2CCC3(CC2)Oc2ccccc2C2CC(c4cccnc4)=NN23)cc1", "note": "(centres undefined)", "Potency": "inactive"},
      {"smiles": "O=C(Nc1nccs1)c1ccc(CSc2nnnn2-c2ccccc2)cc1", "Potency": "inconclusive: 31.6 µM [inhibitor, single point]"},
      {"smiles": "CCC(=O)Nc1cccc(C(=O)/C=C/c2cccs2)c1", "Potency": "inconclusive: 31.6 µM [inhibitor, single point]"},
      {"smiles": "COc1ccc(Cl)cc1Nc1nc(C)nc2c1nnn2Cc1ccccc1", "Potency": "inconclusive: 1.41 µM [inhibitor, full curve, poor fit]"},
      {"smiles": "COc1ccc2c3c(cccc13)N(C)N=C2C", "Potency": "inconclusive: 22.4 µM [inhibitor, single point]"},
      {"smiles": "COc1ccc(CN2CCC(CO)(Cc3ccccc3C(F)(F)F)CC2)c(F)c1", "Potency": "inconclusive: 31.6 µM [inhibitor, single point]"},
      {"smiles": "CC(=NCCN1CCOCC1)C1=C(O)c2ccccc2C1=O", "Potency": "inactive"},
      {"smiles": "O=C(O)CC(NC(=O)C12CC3CC(CC(C3)C1)C2)c1ccc2c(c1)OCO2", "note": "(centres undefined)", "Potency": "inconclusive: 5.62 µM [inhibitor, single point]"},
      {"smiles": "CCOc1ccc(N(CC(=O)N2CCOCC2)S(=O)(=O)c2ccc(F)cc2)cc1", "Potency": "inactive"},
      {"smiles": "O=C(NC1=NCCCCC1)c1cccc2ccccc12", "Potency": "inactive"},
      {"smiles": "COc1ccc(C2C(C#N)=C(N)Oc3n[nH]c(C)c32)cc1Cn1nc(C)c([N+](=O)[O-])c1C", "note": "(centres undefined)", "Potency": "inconclusive: 2.51 µM [inhibitor, full curve] and inconclusive: 2.24 µM [inhibitor, single point]"},
      {"smiles": "COc1ccc(CN(C)CC(O)COC(c2ccccc2)c2ccccc2)c(OC)c1OC", "note": "(centres undefined)", "Potency": "active: 15.8 µM"},
      {"smiles": "COc1cccc(CN(C)C(=O)c2csc3c2CCCC3)c1OC", "Potency": "inactive"},
      {"smiles": "CC(=O)N1CC(C)Oc2ccc(S(=O)(=O)NC(CC(=O)O)c3cc(C)ccc3C)cc21", "note": "(centres undefined)", "Potency": "inactive"},
      {"smiles": "COCCn1c(SC(C)C(=O)Nc2ccc(Cl)cn2)nnc1-c1ccncc1", "note": "(centres undefined)", "Potency": "inconclusive: 10 µM [inhibitor, partial curve]"},
      {"smiles": "O=C(c1ccc([N+](=O)[O-])s1)N1CCc2ccccc2C1", "Potency": "inconclusive: 31.6 µM [inhibitor, single point]"},
      {"smiles": "CC(=O)c1ccccc1NC(=O)COC(=O)c1c(C)nn(-c2ccccc2)c1C", "Potency": "inconclusive: 11.2 µM [inhibitor, partial curve]"},
      {"smiles": "O=S(=O)(c1ccc2ccccc2c1)N1CCc2ccccc21", "Potency": "inconclusive: 31.6 µM [inhibitor, single point]"},
      {"smiles": "O=C(Nc1nc(COc2ccccc2)cs1)C1CCC1", "Potency": "inconclusive: 7.94 µM [inhibitor, partial curve]"},
      {"smiles": "CCOC(=O)c1oc2c(CN3CCCCC3C)c(O)ccc2c(=O)c1-c1ccc(OC)c(OC)c1", "note": "(centres undefined)", "Potency": "inactive"},
      {"smiles": "Cc1cccc(CCNC(=O)C2CCN(S(=O)(=O)c3c(C)noc3C)CC2)c1", "Potency": "inconclusive: 31.6 µM [inhibitor, single point]"},
      {"smiles": "O=c1oc2ccccc2n1Cc1ccccc1", "Potency": "inactive"},
      {"smiles": "COc1ccc(Cl)cc1NC(=O)NCC1CCN(Cc2cc(C)ccc2C)CC1", "Potency": "inconclusive: 11.2 µM [inhibitor, partial curve]"}
    ]}
  ]
}
